# Assay results from the supplement of paper PMC8728848.
# Some of the results follow.
# Tests used:
# Assay in all cases: glycan array binding signal (z-score within array); higher = stronger binding
# Conditions in all cases: glycan notation: IUPAC condensed, linker removed
# [1] = molecular target: Gal3S(b1-3)[Fuc(a1-4)]GlcNAc
# How it was run: (§1)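 Negative Z-scores can be read as non-binding. The Z-score is calculated within each array and then averaged across arrays of one protein sequence at different concentrations or buffers and across linkers. Arrays, 3228 in all, were curated from the Consortium for Functional Glycomics database and kept only where the protein sequence was available.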
# Gal3S(b1-4)Glc = molecular target: Gal3S(b1-4)Glc
# How it was run: as §1
# Gal3S(b1-4)Glc6S = molecular target: Gal3S(b1-4)Glc6S
# How it was run: as §1
# Gal3S(b1-4)GlcNAc = molecular target: Gal3S(b1-4)GlcNAc
# How it was run: as §1
# Gal3S(b1-4)GlcNAc6S = molecular target: Gal3S(b1-4)GlcNAc6S
# How it was run: as §1
# [2] = molecular target: Gal3S(b1-4)[Fuc(a1-3)]Glc
# How it was run: as §1
# [3] = molecular target: Gal3S(b1-4)[Fuc(a1-3)]Glc6S
# How it was run: as §1
# Gal3S4S(b1-4)GlcNAc = molecular target: Gal3S4S(b1-4)GlcNAc
# How it was run: as §1
# Gal3S6S(b1-4)GlcNAc = molecular target: Gal3S6S(b1-4)GlcNAc
# How it was run: as §1
# Gal3S6S(b1-4)GlcNAc6S = molecular target: Gal3S6S(b1-4)GlcNAc6S
# How it was run: as §1
# Gal4S(b1-4)GlcNAc = molecular target: Gal4S(b1-4)GlcNAc
# How it was run: as §1
# Gal4S6S(b1-4)GlcNAc = molecular target: Gal4S6S(b1-4)GlcNAc
# How it was run: as §1
# Gal6S(b1-3)GlcNAc = molecular target: Gal6S(b1-3)GlcNAc
# How it was run: as §1
# Gal6S(b1-3)GlcNAc6S = molecular target: Gal6S(b1-3)GlcNAc6S
# How it was run: as §1
# Gal6S(b1-4)Glc = molecular target: Gal6S(b1-4)Glc
# How it was run: as §1
# Gal6S(b1-4)Glc6S = molecular target: Gal6S(b1-4)Glc6S
# How it was run: as §1
# Gal6S(b1-4)GlcNAc = molecular target: Gal6S(b1-4)GlcNAc
# How it was run: as §1
# Gal6S(b1-4)GlcNAc6S = molecular target: Gal6S(b1-4)GlcNAc6S
# How it was run: as §1
# GalNAc(a1-3)Gal = molecular target: GalNAc(a1-3)Gal
# How it was run: as §1
# GalNAc(a1-3)GalNAc = molecular target: GalNAc(a1-3)GalNAc
# How it was run: as §1
# [4] = molecular target: GalNAc(a1-3)GalNAc(a1-3)Gal(a1-4)Gal(b1-4)GlcNAc
# How it was run: as §1
# [5] = molecular target: GalNAc(a1-3)GalNAc(b1-3)Gal(a1-4)Gal(b1-4)Glc
# How it was run: as §1
# GalNAc(b1-3)Gal = molecular target: GalNAc(b1-3)Gal
# How it was run: as §1
# [6] = molecular target: GalNAc(b1-3)Gal(a1-4)Gal(b1-4)GlcNAc
# How it was run: as §1
# [7] = molecular target: GalNAc(b1-3)Gal(a1-4)Gal(b1-4)GlcNAc(b1-3)Gal(b1-4)Glc
# How it was run: as §1
# [8] = molecular target: GalNAc(b1-3)Gal(a1-6)Gal(b1-4)Glc
# How it was run: as §1
# GalNAc(b1-3)GalNAc = molecular target: GalNAc(b1-3)GalNAc
# How it was run: as §1
# GalNAc(b1-4)Gal(b1-4)Glc = molecular target: GalNAc(b1-4)Gal(b1-4)Glc
# How it was run: as §1
# GalNAc(b1-4)GlcNAc = molecular target: GalNAc(b1-4)GlcNAc
# How it was run: as §1
# [9] = molecular target: GalNAc(b1-4)GlcNAc(b1-2)Man(a1-3)[GalNAc(b1-4)GlcNAc(b1-2)Man(a1-6)]Man(b1-4)GlcNAc(b1-4)GlcNAc
# How it was run: as §1
# GalNAc(b1-6)GalNAc = molecular target: GalNAc(b1-6)GalNAc
# How it was run: as §1
# Glc(a1-4)Glc = molecular target: Glc(a1-4)Glc
# How it was run: as §1
# [10] = molecular target: Glc(a1-4)Glc(a1-4)Glc(a1-4)Glc
# How it was run: as §1
# Glc(a1-6)Glc(a1-6)Glc = molecular target: Glc(a1-6)Glc(a1-6)Glc
# How it was run: as §1
# [11] = molecular target: Glc(a1-6)Glc(a1-6)Glc(a1-6)Glc
# How it was run: as §1
# Glc(b1-4)Glc = molecular target: Glc(b1-4)Glc
# How it was run: as §1
# Glc(b1-6)Glc = molecular target: Glc(b1-6)Glc
# How it was run: as §1
# GlcA(b1-3)Gal = molecular target: GlcA(b1-3)Gal
# How it was run: as §1
# GlcA(b1-3)GlcNAc = molecular target: GlcA(b1-3)GlcNAc
# How it was run: as §1
# GlcA(b1-6)Gal = molecular target: GlcA(b1-6)Gal
# How it was run: as §1
# [12] = molecular target: GlcNAc(a1-3)Gal(b1-4)GlcNAc
# How it was run: as §1
# [13] = molecular target: GlcNAc(a1-4)Gal(b1-3)GlcNAc
# How it was run: as §1
# [14] = molecular target: GlcNAc(a1-4)Gal(b1-4)GalNAc
# How it was run: as §1
# [15] = molecular target: GlcNAc(a1-4)Gal(b1-4)GlcNAc
# How it was run: as §1
# [16] = molecular target: GlcNAc(a1-4)Gal(b1-4)GlcNAc(b1-3)Gal(b1-4)Glc
# How it was run: as §1
binder,measurement,setting,value
PpFlo3 (Pichia pastoris) (protein) MGSSHHHHHHSSGLVPRGSHMQESGNGTTSDTAYACDIGATPFDGFNATIYQYQASDDNSIQDPVFMSTGYLQRNQLHSTTGVTNPGFNIFTAGVATTTLYGIPNVNYQNMLLELKGYFRADASGNYGLSLRNIDDSAILFFGRETAFECCNENLIPLDEAPTDYSLFTIKEGEASTNPDSYTYTQYLEAGRYYPVRTFFANIRTRAVFNFTMTLPDGSELTDFQNYIFQFGALNQ,glycan array binding signal (z-score),[1],5.08
same,glycan array binding signal (z-score),Gal3S(b1-4)Glc,-0.288
same,glycan array binding signal (z-score),Gal3S(b1-4)Glc6S,-0.198
same,glycan array binding signal (z-score),Gal3S(b1-4)GlcNAc,-0.285
same,glycan array binding signal (z-score),Gal3S(b1-4)GlcNAc6S,-0.263
same,glycan array binding signal (z-score),[2],-0.287
same,glycan array binding signal (z-score),[3],-0.25
same,glycan array binding signal (z-score),Gal3S4S(b1-4)GlcNAc,1.18
same,glycan array binding signal (z-score),Gal3S6S(b1-4)GlcNAc,-0.27
same,glycan array binding signal (z-score),Gal3S6S(b1-4)GlcNAc6S,-0.269
same,glycan array binding signal (z-score),Gal4S(b1-4)GlcNAc,-0.223
same,glycan array binding signal (z-score),Gal4S6S(b1-4)GlcNAc,-0.279
same,glycan array binding signal (z-score),Gal6S(b1-3)GlcNAc,-0.289
same,glycan array binding signal (z-score),Gal6S(b1-3)GlcNAc6S,-0.284
same,glycan array binding signal (z-score),Gal6S(b1-4)Glc,-0.224
same,glycan array binding signal (z-score),Gal6S(b1-4)Glc6S,-0.258
same,glycan array binding signal (z-score),Gal6S(b1-4)GlcNAc,-0.262
same,glycan array binding signal (z-score),Gal6S(b1-4)GlcNAc6S,-0.234
same,glycan array binding signal (z-score),GalNAc(a1-3)Gal,-0.274
same,glycan array binding signal (z-score),GalNAc(a1-3)GalNAc,-0.277
same,glycan array binding signal (z-score),[4],-0.284
same,glycan array binding signal (z-score),[5],-0.274
same,glycan array binding signal (z-score),GalNAc(b1-3)Gal,-0.242
same,glycan array binding signal (z-score),[6],-0.188
same,glycan array binding signal (z-score),[7],-0.237
same,glycan array binding signal (z-score),[8],-0.259
same,glycan array binding signal (z-score),GalNAc(b1-3)GalNAc,5.1
same,glycan array binding signal (z-score),GalNAc(b1-4)Gal(b1-4)Glc,-0.272
same,glycan array binding signal (z-score),GalNAc(b1-4)GlcNAc,-0.114
same,glycan array binding signal (z-score),[9],-0.184
same,glycan array binding signal (z-score),GalNAc(b1-6)GalNAc,-0.288
same,glycan array binding signal (z-score),Glc(a1-4)Glc,-0.268
same,glycan array binding signal (z-score),[10],-0.242
same,glycan array binding signal (z-score),Glc(a1-6)Glc(a1-6)Glc,-0.284
same,glycan array binding signal (z-score),[11],-0.292
same,glycan array binding signal (z-score),Glc(b1-4)Glc,-0.246
same,glycan array binding signal (z-score),Glc(b1-6)Glc,-0.279
same,glycan array binding signal (z-score),GlcA(b1-3)Gal,-0.246
same,glycan array binding signal (z-score),GlcA(b1-3)GlcNAc,-0.282
same,glycan array binding signal (z-score),GlcA(b1-6)Gal,-0.288
same,glycan array binding signal (z-score),[12],-0.288
same,glycan array binding signal (z-score),[13],-0.302
same,glycan array binding signal (z-score),[14],-0.243
same,glycan array binding signal (z-score),[15],-0.268
same,glycan array binding signal (z-score),[16],-0.243
